Reference: publication PMC4336329 (PLoS ONE, 2015)
Hit rate of the full screen: of about 310,000 compounds, about 14,000 (4.5%) showed an effect of 50% or more. Effects have a minus sign here. The list shows a part of the results.
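Note: peak tail current of the secondary pulse compared with the same well before compound.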

Each molecule was assayed against human ether-à-go-go-related gene (hERG) potassium channel (human, UniProt Q12809) (assay: primary screen, population patch clamp on CHO cells stably expressing hERG).
human ether-à-go-go-related gene (hERG) potassium channel, sequence (Q12809 whole entry, looked up): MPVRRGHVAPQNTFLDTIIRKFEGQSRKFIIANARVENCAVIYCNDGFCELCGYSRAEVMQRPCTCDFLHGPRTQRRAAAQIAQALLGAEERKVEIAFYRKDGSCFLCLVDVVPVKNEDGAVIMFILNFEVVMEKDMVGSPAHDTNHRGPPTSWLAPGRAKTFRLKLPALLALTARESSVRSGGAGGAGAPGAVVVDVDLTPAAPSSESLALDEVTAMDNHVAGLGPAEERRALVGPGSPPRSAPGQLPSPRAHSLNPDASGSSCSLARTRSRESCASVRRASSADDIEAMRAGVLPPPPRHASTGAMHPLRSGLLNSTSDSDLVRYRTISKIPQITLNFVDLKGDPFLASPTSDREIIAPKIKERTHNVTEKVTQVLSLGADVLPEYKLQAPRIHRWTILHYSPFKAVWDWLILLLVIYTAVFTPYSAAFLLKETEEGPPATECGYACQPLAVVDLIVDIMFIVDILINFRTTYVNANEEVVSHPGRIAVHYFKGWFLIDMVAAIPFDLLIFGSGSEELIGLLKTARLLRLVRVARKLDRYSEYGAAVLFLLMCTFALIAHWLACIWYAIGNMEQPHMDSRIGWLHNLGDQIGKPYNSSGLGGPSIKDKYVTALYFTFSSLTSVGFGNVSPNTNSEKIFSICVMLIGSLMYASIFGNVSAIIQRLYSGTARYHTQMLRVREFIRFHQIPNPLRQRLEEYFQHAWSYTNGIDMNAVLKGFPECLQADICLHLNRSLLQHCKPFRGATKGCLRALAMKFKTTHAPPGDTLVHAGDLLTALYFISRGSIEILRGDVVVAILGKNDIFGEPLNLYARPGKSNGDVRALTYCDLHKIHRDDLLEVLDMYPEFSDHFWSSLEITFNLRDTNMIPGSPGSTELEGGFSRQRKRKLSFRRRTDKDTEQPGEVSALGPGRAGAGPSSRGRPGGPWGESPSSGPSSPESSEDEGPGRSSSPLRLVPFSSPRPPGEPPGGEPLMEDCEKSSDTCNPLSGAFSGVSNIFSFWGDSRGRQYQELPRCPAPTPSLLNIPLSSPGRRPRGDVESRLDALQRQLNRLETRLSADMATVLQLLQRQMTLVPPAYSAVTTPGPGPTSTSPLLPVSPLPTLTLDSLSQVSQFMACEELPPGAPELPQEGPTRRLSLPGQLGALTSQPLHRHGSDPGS
`Cc1ccccc1CN1N=C(/C=C/c2ccccc2)CCC1=O` was tested, and the “hERG current change (%, negative = inhibition) at 10uM” value was 6.48%.
`O=C(CCCn1c(=O)[nH]c2ccsc2c1=O)Nc1ccc(F)cc1` was tested, and the “hERG current change (%, negative = inhibition) at 10uM” value was -5.81%.
With `COC1CCN(Cc2c(C(=O)N3C[C@@H](C)O[C@@H](C)C3)nc3ccc(Cl)cn23)CC1` the “hERG current change (%, negative = inhibition) at 10uM” value was 17.9%.
In the case of `CSCCC(NC(=O)C1CCCCC1)c1nc2ccccc2[nH]1` (stereo not shown), the “hERG current change (%, negative = inhibition) at 10uM” value is reported as 2.93%.
`O=C(CN(Cc1ccccc1)C(=O)CCl)c1cccc(Br)c1` was tested, and the “hERG current change (%, negative = inhibition) at 10uM” value was -23.8%.
With `Cc1cc(Cl)cc(C)c1OCCCCn1ccnc1` the “hERG current change (%, negative = inhibition) at 10uM” value was -31.6%.
For `O=C(CN1C(=O)c2cccnc2Oc2ccc(Cl)cc21)Nc1ccc(F)cc1`, the “hERG current change (%, negative = inhibition) at 10uM” value was 5.39%.
In the case of `CCN1CCN(Cc2ccc(NC(=O)c3cc(NC(=O)c4cncc(-c5cccs5)c4)cc(OC)c3)cc2C(F)(F)F)CC1.O=C(O)C(F)(F)F`, the “hERG current change (%, negative = inhibition) at 10uM” value is reported as 9.85%.
With `CCc1ccc(C(=O)NNC(=O)CCc2nc3ccccc3c(=O)[nH]2)cc1` the “hERG current change (%, negative = inhibition) at 10uM” value was -7.54%.
For `COc1ccccc1N1CCN(/N=C/c2cccc(OC)c2O)CC1`, the “hERG current change (%, negative = inhibition) at 10uM” value was 26.6%.
`N#Cc1ccccc1S(=O)(=O)N1CCN(C(=O)C2COc3ccccc3O2)CC1` (stereo not shown) was tested, and the “hERG current change (%, negative = inhibition) at 10uM” value was -27.8%.
For `CCCC1=[N+](CC(=O)c2ccc(C)cc2)CCn2cccc21.[Br-]`, the “hERG current change (%, negative = inhibition) at 10uM” value was 5.96%.
For `CCOC(=O)c1cc(NC(=O)CN2CCCC2)cc(C(=O)OCC)c1`, the “hERG current change (%, negative = inhibition) at 10uM” value was -16.2%.
`CCOC(=O)CC(=O)NC(CC(=O)OC)c1ccc(C(C)C)cc1` (stereo not shown) was tested, and the “hERG current change (%, negative = inhibition) at 10uM” value was -7.19%.
For `O=C(NCc1ccccn1)Nc1ccc(F)c(Cl)c1`, the “hERG current change (%, negative = inhibition) at 10uM” value was 4.11%.
With `C#Cc1ccc([C@@H]2C=C(C(=O)NC3CC3)O[C@H](OCc3ccc(CO)cc3)C2)cc1` the “hERG current change (%, negative = inhibition) at 10uM” value was -3.96%.
`COc1ccc(OC)c(-c2csc(NC(=O)C3c4ccccc4Oc4ccccc43)n2)c1` was tested, and the “hERG current change (%, negative = inhibition) at 10uM” value was -5.7%.
With `O=C(Nc1cccc(S(=O)(=O)N2CCOCC2)c1)c1ccccn1` the “hERG current change (%, negative = inhibition) at 10uM” value was -3.42%.
In the case of `O=C1c2ccccc2-c2c1cccc2C(=O)N1CCCCC1`, the “hERG current change (%, negative = inhibition) at 10uM” value is reported as -22.3%.
`COc1ccc(-c2sc3ccc(N4CCOCC4)cc3c2-c2ccc(OC)c(F)c2)cc1` was tested, and the “hERG current change (%, negative = inhibition) at 10uM” value was 4.81%.
With `Cc1cc(Cl)ccc1NC(=O)CCC(=O)O` the “hERG current change (%, negative = inhibition) at 10uM” value was -0.48%.
For `Cc1ccc(NCc2nnc(SCC(N)=O)o2)c(C)c1`, the “hERG current change (%, negative = inhibition) at 10uM” value was 14.6%.
With `N#Cc1c(NC(=O)CSc2ccccn2)oc(-c2ccccc2)c1-c1ccccc1` the “hERG current change (%, negative = inhibition) at 10uM” value was -5.2%.
For `COc1cccc2cc(C(C)=O)c(=O)oc12`, the “hERG current change (%, negative = inhibition) at 10uM” value was 10.6%.
In the case of `N#CC1=C(N)N(c2ccccc2)C(c2cccc([N+](=O)[O-])c2)C1(C#N)C#N` (stereo not shown), the “hERG current change (%, negative = inhibition) at 10uM” value is reported as -29.6%.
With `Cc1nc(-c2ccc(F)cc2)c(CC(=O)N2CCN(S(=O)(=O)c3ccc(F)cc3)CC2)s1` the “hERG current change (%, negative = inhibition) at 10uM” value was -24.1%.
`Nc1nc(NCc2ccc(Cl)cc2)nc(NCCO)c1[N+](=O)[O-]` was tested, and the “hERG current change (%, negative = inhibition) at 10uM” value was -13.4%.
With `Cc1ccc(CSC(Nc2ccc(F)cc2)=C(C#N)C#N)cc1` the “hERG current change (%, negative = inhibition) at 10uM” value was 25.4%.
For `Cc1cc(C)cc(OC(=O)CN2C(=O)c3ccccc3C2=O)c1`, the “hERG current change (%, negative = inhibition) at 10uM” value was 8.9%.
For `COc1ccc(C)cc1NC(=O)CN1C(=O)C2CC=CCC2C1=O` (stereo not shown), the “hERG current change (%, negative = inhibition) at 10uM” value was 1.56%.
In the case of `CCS(=O)(=O)c1nc(S(=O)(=O)c2ccc(Cl)cc2)c(NCc2ccco2)s1`, the “hERG current change (%, negative = inhibition) at 10uM” value is reported as 16.8%.
With `Cc1cc(NS(=O)(=O)c2ccc(NC(=O)c3ccccc3C)cc2)no1` the “hERG current change (%, negative = inhibition) at 10uM” value was 17.5%.
In the case of `Cc1ccc(S(=O)(=O)N2CCC(=O)N(C(COCc3ccc(Cl)c(Cl)c3)Cc3ccccc3)CC2)cc1` (stereo not shown), the “hERG current change (%, negative = inhibition) at 10uM” value is reported as 10.2%.
For `CC(/C=C1\SC(=S)N(CCCC(=O)Nc2ccc(C(=O)O)cc2)C1=O)=C\c1ccccc1`, the “hERG current change (%, negative = inhibition) at 10uM” value was 1.57%.
For `CC(C)CCN1CCNC(=O)C1CC(=O)N(C)CCCN1CCOCC1` (stereo not shown), the “hERG current change (%, negative = inhibition) at 10uM” value was 25.7%.
In the case of `Cn1ccnc1SCC(=O)N1CCN(S(=O)(=O)c2ccccc2)CC1`, the “hERG current change (%, negative = inhibition) at 10uM” value is reported as -0.264%.
With `Cc1ccc(N(CC(=O)N2CCN(C3CCCCC3)CC2)S(=O)(=O)c2cccnc2)cc1` the “hERG current change (%, negative = inhibition) at 10uM” value was -37.3%.
For `CN(C(=O)COC(=O)c1cc2c(s1)CCCCC2)c1ccccc1`, the “hERG current change (%, negative = inhibition) at 10uM” value was -9.17%.
For `CCC(CC)C(=O)Nc1nnc(S(=O)(=O)N(CC)c2ccc(OC)cc2)s1`, the “hERG current change (%, negative = inhibition) at 10uM” value was 13.6%.
In the case of `Cn1cc(Br)c(C(=O)Nc2c(F)c(F)c(F)c(F)c2F)n1`, the “hERG current change (%, negative = inhibition) at 10uM” value is reported as -6.6%.
For `Cc1cc(Cl)ccc1C(=O)C1CCCN(C(=O)c2ccc3ncccc3c2)C1` (stereo not shown), the “hERG current change (%, negative = inhibition) at 10uM” value was -29.5%.
For `COc1ccc(N2CCSC2C(=O)NN)cc1` (stereo not shown), the “hERG current change (%, negative = inhibition) at 10uM” value was -9.35%.
For `C=CCN(CC=C)Cc1nc(N)nc(Nc2ccccc2C)n1`, the “hERG current change (%, negative = inhibition) at 10uM” value was -10.8%.
With `O=C(O)c1ccccc1C(=O)c1ccc2c(c1)N(Cc1cccc(F)c1)C(=O)CO2` the “hERG current change (%, negative = inhibition) at 10uM” value was -18.1%.
With `N#C/C(=C/c1ccccc1)C(=O)OCC(=O)Nc1ccccc1[N+](=O)[O-]` the “hERG current change (%, negative = inhibition) at 10uM” value was 8.46%.
In the case of `O=C(CSc1ccccc1C(=O)NCCCN1CCCC1=O)NCc1ccco1`, the “hERG current change (%, negative = inhibition) at 10uM” value is reported as 2.25%.
With `O=C(c1ccc2c(=O)n3c(nc2c1)CCCCC3)N1CCN(Cc2ccccc2)CC1` the “hERG current change (%, negative = inhibition) at 10uM” value was -2.69%.
In the case of `Cc1ccc(-c2c(C)sc3nc[nH]c(=O)c23)cc1C`, the “hERG current change (%, negative = inhibition) at 10uM” value is reported as -7.6%.
With `CCOC(=O)N1CCN(C(=O)c2cc3cc(C)ccc3[nH]2)CC1` the “hERG current change (%, negative = inhibition) at 10uM” value was -7.43%.
With `COc1ccc2nc(-c3ccccc3)cc(C(=O)N3CCC3)c2c1` the “hERG current change (%, negative = inhibition) at 10uM” value was -12.1%.
`Cc1ccccc1NC(=S)N(CCc1c(C)[nH]c2ccc(F)cc12)Cc1ccncc1` was tested, and the “hERG current change (%, negative = inhibition) at 10uM” value was -18.5%.
`COc1ccc(Cl)cc1NC(=O)CSc1nnc(C)c(=O)n1N` was tested, and the “hERG current change (%, negative = inhibition) at 10uM” value was 2.48%.
`COC(=O)CSC1=C(C#N)C(c2ccc(C)o2)CC(=O)N1` (stereo not shown) was tested, and the “hERG current change (%, negative = inhibition) at 10uM” value was 7%.
For `Cc1ccc(C2Nc3ccccc3C(=O)N2CCCN2CCOCC2)cc1` (stereo not shown), the “hERG current change (%, negative = inhibition) at 10uM” value was -34.2%.
For `CC(=O)c1c(C)nc(-c2ccc(Cl)cc2)nc1N=CN(C)C`, the “hERG current change (%, negative = inhibition) at 10uM” value was 6.82%.
